Data reported in PubChem BioAssay (NCATS).
“And” between values parts separate entries of the source, which are not always exact repeats. Equal values may be shown once. The list shows a part of the results. Shown are side measurements of this screen, not its main read-out; they come without a call. Most of these compounds were active or inconclusive in the main read-out, so they are no random draw. Words in brackets tell the shape of the fitted curve; partial curves, single points and poor fits give uncertain potencies.

Experiment: qHTS Assay for Lipid Storage Modulators (AID 1519)
Settings: Drosophila S3 cells, BODIPY lipid droplet/cell ratio, laser cytometry; measured here: cell count channel max response; cells loaded with oleic acid
Summary of the method: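 Cells seeded at 5,000 per well were treated with compounds over a concentration series and loaded with oleic acid (400 uM, as added). Lipid droplet fluorescence (488 nm excitation, 500-530 nm channel) was read by laser-scanning cytometry and normalized to 20 uM Triacsin C.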
Tags describe the fitted curve by direction and shape.

SMILES | max response
COc1ccc(-c2nc3cnc(OC)nc3n(CCc3ccccc3)c2=O)cc1 | 21.4%
COc1cc(OC)c2c(=O)c(-c3ccc4c(c3)OCO4)coc2c1 | 30.5%
CN(C)c1ncc2nc(-c3cccs3)c(=O)n(C3CC3)c2n1 | 12.9%
COc1ncc2nc(-c3ccccc3)c(=O)n(C3CC3)c2n1 | 14.1%
CC(=O)N1CCC2(CC1)CCN(c1ccccn1)CC2 | 32.9%
COc1cc(-c2cc(=O)c3ccccc3o2)ccc1O | 78.1%
COc1ccc(C(=O)N2CCC3(CCCN(c4ncccn4)C3)CC2)cc1 | 18.6%
COc1cccc(Cn2c(=O)c(-c3cccs3)nc3cnc(N4CCN(C)CC4)nc32)c1 | 25.5%
COC1/C=C/OC2(C)Oc3c(C)c(O)c4c(O)c(c(/C=N/N5CCN(C)CC5)c(O)c4c3C2=O)NC(=O)/C(C)=C/C=C/C(C)C(O)C(C)C(O)C(C)C(OC(C)=O)C1C (stereo not given) | 37.3%
COc1ccccc1CNc1nc(-c2cccnc2)nc2ccccc12 | 25.3%
COc1cccc(-c2nc(NCc3cccs3)c3ccccc3n2)c1 | 29.3%
Cn1c(-c2nc(-c3ccccc3)cs2)nc2ccccc21 | 53.7%
O=c1c(-c2ccccc2)nc2cnc(N3CCOCC3)nc2n1-c1ccccc1 | 20.5%
COCCn1c(=O)c(-c2ccc(OC)cc2)nc2cnc(Oc3ccc(OC)cc3)nc21 | -2.47%
O=c1c(-c2ccccc2)nc2cnc(N3CCNCC3)nc2n1-c1ccccc1 | 33%
COc1ccccc1CNc1ncncc1-c1ccc(C(=O)N(C)C)cc1 | 57.2%
CN(C)c1nc(-c2cccnc2)nc2ccccc12 | 37.5%
CC[C@]1(c2ncc[nH]2)Cc2ccccc2O1 | 38.5%
COc1cccc(-c2cncnc2NCc2cccnc2)c1 | 45.2%
c1nc(NC2CC2)c2cc(-c3ccoc3)ccc2n1 | 39.5%

SMILES | max response
CN(Cc1ccco1)c1ncnc2ccc(-c3ccccc3C#N)cc12 | 29.4%
CC(C)c1ccc2c(c1)CC[C@@H]1[C@@](C)(CN)CCC[C@]21C | 6.87%
Cc1cccc(/C=C\c2ccccc2)n1 | 84.2%
CN(C)c1ncc2nc(-c3cc(F)cc(F)c3)c(=O)n(CCc3ccccc3)c2n1 | 29.5%
COc1ccc(-c2nc3cnc(OC)nc3n(Cc3ccc(F)cc3)c2=O)cc1 | 24.5%
C[C@@H](CCc1ccc(O)cc1)NCCc1ccc(O)c(O)c1 | 20.7%
N#CCCn1c(=O)c(-c2cc(F)cc(F)c2)nc2cnc(Oc3cccc(Cl)c3)nc21 | 2.41%
CC(C)(C)NCC(O)c1cc(O)cc(O)c1 (stereo not given) | 28.2% and -13.3%
c1ccc(Nc2nc(-c3ccoc3)nc3ccccc23)cc1 | 25.2%
CC(=O)OC1CCC2(C)C3CCC4(C)C(CC5CCCCC54C(C)=O)C3CC(=O)[C@@]2(O)C1 (stereo not given in full) | 48.5%
Cn1cccc1C(=O)N1CCC2(CC1)CCN(c1ccccn1)CC2 | 21.4%
COc1ncc2nc(C)c(=O)n(-c3ccccc3)c2n1 | 43.7%
CCNc1ncc2nc(-c3cccs3)c(=O)n(Cc3ccc(F)cc3)c2n1 | 40%
COc1ccc(-n2c(=O)c(-c3ccc(F)cc3)nc3cnc(OC)nc32)cc1 | 13.8%
C[C@@H]([C@H](O)c1ccc(O)cc1)N1CCC(Cc2ccccc2)CC1 | 39.2%
C=C(CO)C1Cc2c(ccc3c(=O)c4c(oc23)COc2cc(OC)c(OC)cc2-4)O1 (stereo not given) | 46.5%
Cc1cnc(CNc2nc(-c3c(C)noc3C)nc3ccccc23)cn1 | 17.7%
O=C(c1cc(C(F)(F)F)cc(C(F)(F)F)c1)N1CCC2(CCCN(Cc3ccncc3)C2)CC1 | 13.6%
CN(CCc1ccc(Cl)c(Cl)c1)CCN1CCCCCC1 | 40.1%
COc1ccccc1-c1cncnc1NCc1ccccc1 | 34.5%

Same assay, conditions: Drosophila S3 cells, BODIPY lipid droplet/cell ratio, laser cytometry; measured here: cell number channel AC50; cells loaded with oleic acid

SMILES | AC50
COc1ccc(-c2nc3cnc(OC)nc3n(CCc3ccccc3)c2=O)cc1 | 63.1 nM [rising, full curve, poor fit]
COc1cc(OC)c2c(=O)c(-c3ccc4c(c3)OCO4)coc2c1 | 282 nM [rising, full curve]
CN(C)c1ncc2nc(-c3cccs3)c(=O)n(C3CC3)c2n1 | 1260 nM [rising, full curve]
COc1ncc2nc(-c3ccccc3)c(=O)n(C3CC3)c2n1 | 3160 nM [rising, single point]
CC(=O)N1CCC2(CC1)CCN(c1ccccn1)CC2 | 794 nM [rising, full curve, poor fit]
COc1cc(-c2cc(=O)c3ccccc3o2)ccc1O | 14100 nM [rising, partial curve]
COc1ccc(C(=O)N2CCC3(CCCN(c4ncccn4)C3)CC2)cc1 | 2510 nM [rising, partial curve]
COc1cccc(Cn2c(=O)c(-c3cccs3)nc3cnc(N4CCN(C)CC4)nc32)c1 | 794 nM [rising, full curve, poor fit]
COC1/C=C/OC2(C)Oc3c(C)c(O)c4c(O)c(c(/C=N/N5CCN(C)CC5)c(O)c4c3C2=O)NC(=O)/C(C)=C/C=C/C(C)C(O)C(C)C(O)C(C)C(OC(C)=O)C1C (stereo not given) | 7080 nM [rising, full curve, poor fit]
COc1ccccc1CNc1nc(-c2cccnc2)nc2ccccc12 | 794 nM [rising, full curve]
COc1cccc(-c2nc(NCc3cccs3)c3ccccc3n2)c1 | 398 nM [rising, full curve]
Cn1c(-c2nc(-c3ccccc3)cs2)nc2ccccc21 | 1260 nM [rising, full curve]
O=c1c(-c2ccccc2)nc2cnc(N3CCOCC3)nc2n1-c1ccccc1 | 35.5 nM [rising, full curve, poor fit]
COCCn1c(=O)c(-c2ccc(OC)cc2)nc2cnc(Oc3ccc(OC)cc3)nc21 | 1260 nM [rising, full curve, poor fit]
O=c1c(-c2ccccc2)nc2cnc(N3CCNCC3)nc2n1-c1ccccc1 | 12600 nM [rising, single point]
COc1ccccc1CNc1ncncc1-c1ccc(C(=O)N(C)C)cc1 | 31600 nM [rising, partial curve]
CN(C)c1nc(-c2cccnc2)nc2ccccc12 | 398 nM [rising, full curve]
CC[C@]1(c2ncc[nH]2)Cc2ccccc2O1 | 35500 nM [rising, single point]
COc1cccc(-c2cncnc2NCc2cccnc2)c1 | 794 nM [rising, full curve]
c1nc(NC2CC2)c2cc(-c3ccoc3)ccc2n1 | 3550 nM [rising, full curve]

SMILES | AC50
CN(Cc1ccco1)c1ncnc2ccc(-c3ccccc3C#N)cc12 | 891 nM [rising, full curve, poor fit]
CC(C)c1ccc2c(c1)CC[C@@H]1[C@@](C)(CN)CCC[C@]21C | 10 nM [falling, full curve, poor fit]
Cc1cccc(/C=C\c2ccccc2)n1 | 12600 nM [rising, partial curve]
CN(C)c1ncc2nc(-c3cc(F)cc(F)c3)c(=O)n(CCc3ccccc3)c2n1 | 631 nM [rising, full curve, poor fit]
COc1ccc(-c2nc3cnc(OC)nc3n(Cc3ccc(F)cc3)c2=O)cc1 | 39.8 nM [rising, full curve]
C[C@@H](CCc1ccc(O)cc1)NCCc1ccc(O)c(O)c1 | 15800 nM [rising, single point]
N#CCCn1c(=O)c(-c2cc(F)cc(F)c2)nc2cnc(Oc3cccc(Cl)c3)nc21 | 1780 nM [rising, partial curve, poor fit]
CC(C)(C)NCC(O)c1cc(O)cc(O)c1 (stereo not given) | 562 nM [falling, full curve, poor fit]
c1ccc(Nc2nc(-c3ccoc3)nc3ccccc23)cc1 | 7.94 nM [rising, full curve, poor fit]
CC(=O)OC1CCC2(C)C3CCC4(C)C(CC5CCCCC54C(C)=O)C3CC(=O)[C@@]2(O)C1 (stereo not given in full) | 14100 nM [rising, partial curve, poor fit]
Cn1cccc1C(=O)N1CCC2(CC1)CCN(c1ccccn1)CC2 | 141 nM [rising, partial curve, poor fit]
COc1ncc2nc(C)c(=O)n(-c3ccccc3)c2n1 | 11200 nM [rising, partial curve, poor fit]
CCNc1ncc2nc(-c3cccs3)c(=O)n(Cc3ccc(F)cc3)c2n1 | 1000 nM [rising, full curve, poor fit]
COc1ccc(-n2c(=O)c(-c3ccc(F)cc3)nc3cnc(OC)nc32)cc1 | 3980 nM [rising, partial curve, poor fit]
C[C@@H]([C@H](O)c1ccc(O)cc1)N1CCC(Cc2ccccc2)CC1 | 31600 nM [rising, partial curve, poor fit]
C=C(CO)C1Cc2c(ccc3c(=O)c4c(oc23)COc2cc(OC)c(OC)cc2-4)O1 (stereo not given) | 6310 nM [rising, full curve, poor fit]
Cc1cnc(CNc2nc(-c3c(C)noc3C)nc3ccccc23)cn1 | 794 nM [rising, full curve]
O=C(c1cc(C(F)(F)F)cc(C(F)(F)F)c1)N1CCC2(CCCN(Cc3ccncc3)C2)CC1 | 7080 nM [rising, single point]
CN(CCc1ccc(Cl)c(Cl)c1)CCN1CCCCCC1 | 31600 nM [rising, single point]
COc1ccccc1-c1cncnc1NCc1ccccc1 | 5620 nM [rising, full curve, poor fit]
